# Screen size: about 150,000 compounds; about 540 (0.36%) showed an effect of 50% or more. This is one part of the list.
# Test system: Plasmodium falciparum
# Experiment: Primary screen in NF54 nanoGlo assay, in single point, at 2uM, 72h; a lower Z score goes with more inhibition
# Format: functional, Erythrocyte
# Conditions: timepoint 72 hour
SMILES,% Inhibition [%],Z score
O=S(=O)(Nc1ccc2c(c1)COC2)c1cnn(CC(F)F)c1,-3,0.33
CO[C@H]1C[C@H]2CC[C@@H](C1)N2C(=O)c1ccc(F)c(Cl)c1,-12,1.82
Cc1c[nH]c(C(=O)N[C@@H]2COCC[C@@H]2OCC2CCC2)n1,-12,2.3
Cc1onc(CC(=O)NC2(C)CCOC2C)c1C#N (configuration not stated),-14,2.15
CC(C)c1csc(-c2c(-c3ccccc3)ncn2[C@@H](CO)C(C)C)n1,-3,0.43
Fc1ccc2ccnc(N3CCC[C@@]4(CCOC4)C3)c2c1,-9,1.8
CCn1c(C)cc(=O)c(C(=O)O)c1COc1ccccc1,-5,0.68
Brc1ccc2nc(N3CCCC3)nc(-c3ccccc3)c2c1,-7,0.87
CC(C)[C@@H]1CN(Cc2nnc(C3CC3)o2)CCCN1Cc1ccc(F)cc1,-2,0.42
N#CCN1CCC(CNC(=O)C2CC=CC2)CC1,-12,1.01
CCOCCCNCc1ccc(F)cc1,-10,1.59
Cc1csc([C@@H]2CCCN2Cc2ccc3cn[nH]c3c2)n1,-14,1.23
COc1cc(-c2n[nH]cc2-c2nc3cc(C)c(C)cc3[nH]2)cc(OC)c1OC,-5,0.93
Cc1cccc(NC(=O)Cc2csc(-n3nc(C)c(Cl)c3C)n2)c1C,-16,2.98
CCn1cc(C(=O)NCc2cc(=O)n3ccccc3n2)c(C)n1,-4,0.71
CCC[C@H]1CN(S(=O)(=O)c2cc(C)cc3cccnc23)C[C@@H]1N,-5,0.63
CC1CN(C(CNS(=O)(=O)c2cnn(C)c2)c2c(F)cccc2Cl)CCO1 (configuration not stated),-1,0.1
COC1CCCN(c2ncnc(N3CCCC(OC)C3)c2C)C1 (configuration not stated),-1,0.08
O=C(c1ccc[nH]1)N1CCC[C@H]1c1ccc2c(c1)OCCCO2,2,-0.23
CC(C)(C)C(=O)NCCCC(=O)N1CCCCCC1,-7,0.95
CC[C@@H](C(=O)NC(C)(C)C)N1CC(Oc2ccccc2)C1,-2,0.47
CCCCNc1cc(N2CCC[C@H](c3nc(C)no3)C2)nc(N)n1,2,-0.3

SMILES,% Inhibition [%],Z score
Cc1ccc(-n2cc(-c3ccccc3)nc2NC(=O)CN(CCN2CCOCC2)C(=O)c2ccccc2)cc1F,-10,1.9
CN1CCN(C[C@H]2CN(c3ccc4nnc(C(F)(F)F)n4n3)CCO2)CC1,5,-0.85
COc1ccc(F)c(CN2CC[C@](C)(O)[C@H](C)C2)c1,-5,0.96
Cc1cccc(S(=O)(=O)Nc2nnc(C3CC3)o2)c1Br,5,-0.67
CNC[C@H]1CCCN1C(=O)COc1ccc(C)cc1C,1,-0.14
OCC#Cc1ccc(CN[C@H]2CCCN(c3ncccn3)C2)s1,-16,1.46
Cc1c(C(=O)Nc2nc3c(s2)CCCC3)nnn1C1CCNCC1,10,-1
Cn1c(=O)c2c(nc(N3CCCCC3)n2CCNC2=NCCCCC2)n(C)c1=O,-7,0.86
CC1CN(CC(O)Cn2cccn2)CC(C)[S+]1[O-] (configuration not stated),-5,0.53
O=C(c1cccc(F)c1)N1CCCCC[C@@H]1CN1CCCC1,-1,0.17
Cc1cccc(Nc2ccc(NCCNS(=O)(=O)c3ccc4ccccc4c3)nn2)n1,4,-0.61
O=C1CCC(=O)N1C1CCC(NC2CC(c3ccc(F)cc3)C2)CC1 (configuration not stated),4,-0.46
COC(=O)N1CCCC(C(=O)NC2C3CCC(C3)C2C(=O)OCc2ccccc2)C1 (configuration not stated),1,-0.17
CCC1(CNC(=O)C[C@H]2CCCO2)CCCC1,-2,0.36
CCN1CCC(NCc2cccs2)CC1,21,-2.78
Nc1cc(N2CCC[C@H](c3ccn[nH]3)C2)nc(N2CCCC2)n1,-9,0.97
Cc1cccc2nc(CN(C)C(=O)c3cn[nH]c3)[nH]c12,-4,0.44
CCCNC(=O)CNC(C)(C)c1ccccc1,-4,0.6
Cc1cccc(N2CCN(C(=O)Cn3ccc4ccc(N5CCOCC5)nc43)CC2)c1C,-2,0.23
O=C(NCCc1cscn1)N(Cc1c(F)cccc1F)C1CC1,-4,0.58
CN(C)c1nc2cc(C(=O)NC[C@H](N3CCOCC3)C(F)(F)F)ccc2o1,-28,3.33
CCc1nc2c(N3CCC[C@H](C(=O)c4ccccc4)C3)ncnc2o1,-6,1.1

SMILES,% Inhibition [%],Z score
CCCn1nc(C(=O)O)c2c1CC[C@H](N(C)Cc1nccs1)C2,-1,0.27
Cc1c(Cl)cccc1-n1nc(C2CC2)nc1-c1cncnc1,-7,0.87
O=C(Nc1ccc(-n2nc(OCc3ccc(F)cc3)nc2-c2ccc(C(F)(F)F)cc2)cc1)c1ccc2c(c1)OCO2,-12,1.25
CCc1nc(CCNC(=O)Nc2cccc(CN3CCCC[C@@H]3C)c2)no1,-8,0.68
CCn1nc(CO)c2c1CCN(C(=O)Cc1noc3ccccc13)C2,-8,1.59
CC(C)CN(CC(=O)O)Cc1cccc(O)c1Cl,-14,1.78
O=C(NCCN1CC[C@@H](O)C1)c1cc(F)cc(Br)c1F,9,-1.03
Cn1cc(C(=O)Oc2ccc([C@H]3CCOC3)cc2)cn1,-1,0.16
COc1ccccc1N1CCN(C(=O)c2cc3n(n2)CCN(Cc2ccccc2C(F)(F)F)C3=O)CC1,-7,0.65
C[C@@H](CCCO)NC(=O)c1cnsn1,-2,0.39
CCN1C(=O)c2ccccc2N2C(=O)CC[C@@]12C(=O)Nc1nccs1,8,-0.95
O=c1c(NCC2(c3ccncc3)CCCCC2)nccn1C1CC1,-4,0.5
Cc1cnc(CCNC(=O)C2CCOCC2)n1C1CC1,-10,1.5
COc1ccc(CCNC(=O)C(=O)N2CCCC2)cc1,-14,2.14
Cc1ccc2c(c1)C(C)(C)[C@]1(C)NC(=O)CCN21,0,0.03
CC[C@H](C)NC(=O)C(=O)Nc1ccc(Cl)c(Cl)c1,-2,0.23
Cc1oc(-c2ccc(C(=O)NCCC(C)C)cc2)nc1CN1CCc2ccccc21,-1,0.08
O=C(CCCc1ccccc1)NOCc1nnc(-c2ccccc2)o1,1,-0.18
CC(C)n1cc2c(n1)[C@@H](NS(=O)(=O)c1cccnc1)CCC2,-10,1.26
C[C@H](CO)N(C)S(=O)(=O)c1cccc(N(C)C)c1,-5,0.67
C=CC1CCN(C(=O)NO[C@@H]2CCCCO2)CC1,-5,0.72
Cc1ccc(-c2csc(-c3cccn3CC(=O)N3CCCCCC3)n2)cc1,-7,0.97

SMILES,% Inhibition [%],Z score
Cc1cc(C(=O)N2CC[C@@](O)(c3ccccc3)C2)no1,-15,1.97
COc1cc(-c2noc(C3CC3)n2)ccc1OCc1ccc(C)cc1,-12,1.17
C#CCN1CCCCC1C(=O)N(C)CC1OCCc2ccccc21 (configuration not stated),2,-0.22
COc1ccccc1N1CCN(C(=O)C[C@@H]2O[C@H](CNC(=O)c3cccc(F)c3)[C@@H](O)[C@H]2O)CC1,24,-2.74
Cc1ccccc1CNC(=O)C[C@H]1CCN(S(C)(=O)=O)C1,-6,0.95
Cc1ccc(CNCc2cccs2)s1,-12,1.39
C1CN(Cc2nnnn2C2CC2)CCN(Cc2nnnn2C2CC2)C1,-8,1.19
C[C@H](NC(=O)NCc1c(C2CC2)cnn1C)c1ncc(Br)cn1,3,-0.5
COc1ccccc1NC(=O)N1CCCCC[C@H]1c1ccc(C)s1,3,-0.49
CC(C)Cn1c(=O)c2sccc2n(CC(=O)N2CCCC[C@@H]2C)c1=O,-13,1.7
Cn1cc(C(=O)Nc2nc3ccccc3n2CC2CC2)c(C2CC2)n1,0,0.04
Cc1c(C(=O)N2CCCCC2)c(S(=O)(=O)N2CCN(c3ccc(Cl)cc3)CC2)c(C)n1C,-14,2.7
Cc1nnc(CN(C)C(=O)Nc2ccn(CCN3CCOCC3)n2)s1,0,0.08
CCc1nnc(Cn2cc([C@H](O)c3ccccc3)cn2)o1,-15,1.67
CC1CC(NC(=O)N(C)CC(C)(C)O)C1 (configuration not stated),-17,1.7
Cc1ncsc1CN1CCCC(C(C)O)C1 (configuration not stated),5,-0.68
Cc1nc2cc(NC(=O)C3CC4C=CC3C4)ccc2o1 (configuration not stated),-15,2.12
NC(=O)c1ccc(NC(=O)CN2C(=O)NC3(CCCCCCC3)C2=O)cc1,-3,0.42
COc1ccc([C@H]2C(=O)N(C3CCCCCC3)CC(=O)N2Cc2ccc3c(c2)OCO3)cc1,-2,0.39
CCC1[C@@H](C)C(Nc2ccccc2)c2ccccc2N1C(=O)c1ccc(C(C)(C)C)cc1 (some centres not stated),20,-2.38
